According to PubChem BioAssay AID2060612 (Molecular Pharmacology Branch, DTP, NCI, 2025):
For part of its entries the source gives two or more results. This is not the full list of results. The source may hold further records. The records of an entry repeat one measurement across runs, samples, wells, individuals or studies. Signs of the kind (2×) give the number of equal values in this list. Dates in brackets are months of testing.

System: 565232-114-T-J1-PDC complex spheroid viability
Assay: Anticancer human tumor 565232-114-T-J1-PDC patient-derived bladder carcinoma cell line growth inhibition [CLK]
Settings: stronger effect = lower value
Excerpt: A high-throughput screen of multi-cell type tumor spheroids was designed to identify active combinations of […] and targeted small molecules. Complex spheroids include a stromal component modeled by human endothelial cells (HUVEC) and fibroblasts modeled by human mesenchymal stem cells (MSCs). The concentration ranges selected for each drug and investigational agent were based upon clinically achievable concentrations if the clinical Cmax of the agent was known.
Compounds. The drugs and investigational agents: cirtuvivint (SM08502; NSC835563), CC-671 (NSC850746), vemurafenib (NSC761431), tapotoclax (NSC804041), sotorasib (NSC818433), adagrasib (NSC831453), MRTX-1133 (NSC836407), BAY2416964 (NSC825713), copanlisib (NSC816437), inavolisib (NSC800729), abemaciclib (NSC768073), osimertinib (NSC779217), entinostat (NSC756642), eltanexor (KPT-8602, NSC794443), venetoclax (NSC766270), ceralasertib (NSC777638), bortezomib (NSC756655), olaparib (NSC753686), talazoparib (NSC767125), alisertib (NSC759677), peposertib (NSC802822), gemcitabine (NSC613327), 5-fluorouracil (NSC19893), SN-38 (NSC673596), oxaliplatin (NSC266046), paclitaxel (NSC125973), and doxorubicin (NSC123127), were obtained from the National Cancer Institute (NCI) Developmental Therapeutics Program Chemical Repository. […] If the clinical Cmax for an agent had not been determined, the highest concentration tested was 10 microM. […]
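Further: spheroids exposed to compounds for 7 days before readout; 100% = DMSO vehicle wells with luminescence normalized to vehicle control.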

SMILES | viability, T/C (compound alone 0.1 µM) | viability, T/C (compound alone 0.0316 µM)
CCc1c2c(nc3ccc(O)cc13)-c1cc3c(c(=O)n1C2)COC(=O)[C@]3(O)CC | 41.9% [2023-07] and 9.93% [2023-08] | 
CNC(=O)c1ccc(Nc2nc(OC3CCCC3)c3c(-c4ccc5nc(C)oc5c4)c[nH]c3n2)c(OC)c1 |  | 100 (2×), 92.6, 91.5, 90.4, 84.1, 86.3, 111, 84.5, 89.3, 94.4, 87.3%
